The supplement of paper PMC3334620
Whole data set: some 33,000 sequences, median “E-score (-0.5 to 0.5)” near -0.036, cut for the highest 2% near 0.37. Some of the results follow.

target: T1, Yer064c (UniProt P40041); assay: PBM E-score (8-mer binding enrichment) (E-score (-0.5 to 0.5)); higher = stronger / more preferred TF binding; most listed sequences are background and not binding sites; details: protein concentration: 200 nM; construct: GST-full length
T1 sequence: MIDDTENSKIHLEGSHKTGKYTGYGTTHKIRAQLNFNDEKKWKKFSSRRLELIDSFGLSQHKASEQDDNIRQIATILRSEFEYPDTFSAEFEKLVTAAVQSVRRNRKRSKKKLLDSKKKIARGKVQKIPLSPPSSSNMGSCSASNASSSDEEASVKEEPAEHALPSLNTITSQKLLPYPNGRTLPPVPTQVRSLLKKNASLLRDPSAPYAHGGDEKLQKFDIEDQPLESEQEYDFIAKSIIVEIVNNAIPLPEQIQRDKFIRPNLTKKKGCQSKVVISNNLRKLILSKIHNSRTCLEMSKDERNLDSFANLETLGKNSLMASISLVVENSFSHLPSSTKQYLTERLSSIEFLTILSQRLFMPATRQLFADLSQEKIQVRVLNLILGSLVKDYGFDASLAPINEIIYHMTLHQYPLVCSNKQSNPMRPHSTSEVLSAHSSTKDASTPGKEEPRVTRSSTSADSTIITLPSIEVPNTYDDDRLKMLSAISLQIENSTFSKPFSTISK
Summary of the method: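 Full-length yeast transcription factors or their DNA-binding domains, GST-tagged and expressed with PURExpress, were applied at about 100-200 nM to universal all-10-mer Agilent arrays. These arrays had been made double-stranded by primer extension on fresh or once-stripped slides. Detection used fluorescent anti-GST, normalisation used masliner, and E-scores for ungapped eight-base words pooled with reverse complements came from the Universal PBM Analysis Suite.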

Row | Sequence | PBM E-score
1 | ATGTGCCA | -0.0092
2 | AATTACAG | 0.145
3 | CCTATCCC | -0.171
4 | CTTAAAGC | -0.115
5 | CCACTGGA | -0.0822
6 | ATCCTGAG | 0.122
7 | TAAAGGGA | 0.0752
8 | AGATACGG | -0.0992
9 | AAGTCCGA | 0.0757
10 | GATATAGC | -0.225
11 | CAATCGAA | 0.0349
12 | CAAGCCCA | -0.154
13 | TAGAGGCA | -0.273
14 | GTTTCTCA | -0.00388
15 | AACTGGTG | -0.138
16 | AAGCTGGA | -0.0528
17 | CACCATCA | -0.126
18 | GGGATGTA | -0.252
19 | AAGAGACC | -0.115
20 | ATCCAATG | -0.0599
21 | CTCATGGA | 0.119
22 | GGGGAAAC | -0.00029
23 | ACGACCGA | 0.0911
24 | GTATTGAC | 0.153
25 | GACACTCC | 0.0934

Row | Sequence | PBM E-score
26 | CCAGGAGC | -0.315
27 | AAGAGCCA | 0.0756
28 | GACACATC | 0.116
29 | CCTTTTAA | 0.0512
30 | CTGCGATA | 0.0199
31 | GCTTTGTA | 0.0612
32 | ATTGCATG | 0.137
33 | CCCTGCCC | -0.272
34 | CAAGCCGC | -0.258
35 | ACTTTGAG | 0.261
36 | AACGATCC | -0.136
37 | AGTAAATG | 0.108
38 | ACGGTACA | -0.106
39 | CAGTCCTC | 0.14
40 | ATCCCGTC | -0.193
41 | AATGGTCG | -0.147
42 | AAGGGGGT | -0.375
43 | TCATGAGA | 0.288
44 | CATGACGA | 0.0513
45 | CAAAGGAG | -0.0916
46 | AAACGTGT | 0.0909
47 | ATAAAGAG | 0.00873
48 | GACGGCCA | -0.257
49 | GCGCCGTA | -0.144
50 | CACTGATG | -0.0721

Row | Sequence | PBM E-score
51 | ATAAGTCA | 0.438
52 | ACTTATAA | 0.203
53 | TCTGAGAA | 0.186
54 | CAAGCCCG | -0.274
55 | ATCGCGAG | 0.102
56 | AGTAGCAG | 0.0455
57 | GATTGTAC | -0.113
58 | CCAATACA | -0.0917
59 | GAAGTTAC | 0.0811
60 | ATCATTCG | 0.205
61 | TACCAGCA | -0.0213
62 | CACCATAA | 0.157
63 | GGGAGCAC | -0.227
64 | GTATTTTA | 0.0309
65 | GTCTAGGA | 0.0679
66 | ACCTGTGA | 0.14
67 | AGGTGTGG | -0.184
68 | AGATGGCG | 0.00785
69 | AGAGGCCA | -0.217
70 | GACTCCTC | 0.419
71 | AGTGCGAG | 0.133
72 | CCGGGATC | 0.0126
73 | TCGTCTAA | 0.136
74 | ATCGTGGG | 0.00635
75 | AGCCCGAT | -0.0209

Row | Sequence | PBM E-score
76 | TGTCCCAA | -0.0394
77 | CGTATCTC | -0.023
78 | ATAGTCTG | 0.177
79 | AGCGGTAA | -0.0162
80 | ACTATACG | 0.297
81 | AGTTAGCA | -0.0881
82 | ATAGGCAC | -0.342
83 | ACAATAGG | -0.0629
84 | ACCAGAGG | -0.0739
85 | AATGCATA | -0.108
86 | AATAAAGA | 0.245
87 | CACAGCCC | -0.152
88 | GTGAAGGA | 0.167
89 | CAAACCGA | 0.0519
90 | ATGAACAC | 0.122
91 | ACGAAAAT | 0.0992
92 | GCAAAGAA | 0.128
93 | AAAAATTT | 0.169
94 | AGGGCAAG | -0.21
95 | ATACGATG | -0.0122
96 | AACAGGGG | -0.168
97 | GCTTCGCA | -0.0264
98 | GAGCGAGC | -0.121
99 | ACGTATGG | -0.127
100 | ACTGTCTA | 0.0798

Row | Sequence | PBM E-score
101 | ACTTCAAG | 0.278
102 | ACTCTCAG | 0.125
103 | GACAAGCC | -0.149
104 | ACCCTGCT | -0.137
105 | CGTCGACA | -0.125
106 | CATACAAG | -0.0146
107 | CCGGAAAC | -0.0836
108 | GGTCAGAA | -0.00031
109 | GGAATTAA | 0.105
110 | CTCCGAAC | -0.156
111 | ATGTGTTG | 0.147
112 | CCATGAGC | 0.138
113 | AACCCGCA | -0.117
114 | AGGCTTGG | -0.19
115 | GAGTCGAC | 0.366
116 | AGAAAGTC | 0.233
117 | ATAAATCG | -0.0657
118 | ACATAGTC | 0.386
119 | GGTTGCTA | -0.155
120 | ACCTGTGC | -0.145
121 | GTCTTCGA | 0.174
122 | CGAGTGAG | 0.181
123 | AAGAGTGA | 0.232
124 | TCTCCAGA | -0.0464
125 | AGAACACT | -0.127

Row | Sequence | PBM E-score
126 | GCGTCATA | 0.0743
127 | CTACCAAA | 0.11
128 | GACAGGGC | -0.409
129 | ATAGCGAG | -0.0166
130 | GACTGGGA | 0.152
131 | CTCGTCGC | -0.15
132 | AGGTCAAA | 0.0677
133 | ACTCAGCA | 0.2
134 | CTCCCAAC | -0.141
135 | GTCGGATA | 0.0569
136 | ACTATATC | 0.132
137 | CGAGGCCA | -0.296
138 | ATGGAGAG | -0.0455
139 | CATAGCTA | -0.0202
140 | AATCTCCT | -0.0556
141 | AGGCGACG | -0.346
142 | GGGGACCC | -0.181
143 | CCCGTGAC | 0.261
144 | TCAGTCAA | 0.348
145 | GATTGCGC | 0.172
146 | GGCGACAA | -0.153
147 | ACAGCCAA | -0.125
148 | CGCGGAAC | -0.0379
149 | CAGGGCGC | -0.0913
150 | AGTGTAAG | 0.0105

Row | Sequence | PBM E-score
151 | CCCTAAGG | -0.169
152 | ACAAGGGC | -0.342
153 | AGCGGAGA | -0.0941
154 | ATTTTGGC | -0.0748
155 | ACAGGCCA | -0.401
156 | ACTGGTTA | 0.0655
157 | ACTTTAAC | -0.0315
158 | CGTCAATC | 0.17
159 | CAGTTGTA | 0.0649
160 | ATATCCCA | -0.0842
161 | AGAAGTAG | -0.144
162 | ACTCAAGG | 0.29
163 | TACCCCGA | -0.0258
164 | GTACAAAA | 0.192
165 | CAACGTTC | -0.198
166 | ATTTCACC | 0.00375
167 | CTTTCCTA | 0.0796
168 | AGGTTGGA | -0.114
169 | CTGTTGAA | 0.125
170 | ATCGTGTG | 0.0756
171 | CCGTTGAC | 0.118
172 | ACCGTCTC | -0.0574
